Test results published in PubChem BioAssay AID485294 (National Center for Advancing Translational Sciences (NCATS), 2010).
Among all 370,000 compounds or so, about 150 (0.041%) were called active. Inconclusive results, whose numbers are uncertain, are shown with a selection of clear calls. Calls follow the shape of the dose curve; as a rule, active = well fitted inhibition curve with a large enough effect; inconclusive = small, poorly fitted or top-dose-only effect; inactive = flat fitted curve, though single readings scatter. Potencies of inconclusive entries are left out as doubtful fits.

Biological target: Beta-lactamase (Escherichia coli (strain K12)) (UniProt P00811)
Test: qHTS Inhibitors of AmpC Beta-Lactamase (assay with detergent); also: nearly all actives have a fitted effect of over 25% in size;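 as to activity change, negative = inhibition: 0% = no-compound wells and -100% = no-enzyme wells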
Settings: AmpC hydrolysis of nitrocefin, absorbance 480 nm, 0.01% Triton; activity change, negative = inhibition: at 114 µM (top of the series)
Summary of the method: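 20 mM phosphate pH 7.0 + 0.01% (detergent screen) or 0.0001% Triton X-100; 5.3 nM AmpC reagent; cpd preinc 15 min RT; nitrocefin (800 uM stock) to start; A480 q20 s × 4 min; Activity was normalised to no-enzyme and no-compound control wells.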
Potency is read from the fitted curve at half-maximal effect; tags tell the direction and shape of the fitted curve.

UniProt P00811, sequence (P00811 whole entry, looked up): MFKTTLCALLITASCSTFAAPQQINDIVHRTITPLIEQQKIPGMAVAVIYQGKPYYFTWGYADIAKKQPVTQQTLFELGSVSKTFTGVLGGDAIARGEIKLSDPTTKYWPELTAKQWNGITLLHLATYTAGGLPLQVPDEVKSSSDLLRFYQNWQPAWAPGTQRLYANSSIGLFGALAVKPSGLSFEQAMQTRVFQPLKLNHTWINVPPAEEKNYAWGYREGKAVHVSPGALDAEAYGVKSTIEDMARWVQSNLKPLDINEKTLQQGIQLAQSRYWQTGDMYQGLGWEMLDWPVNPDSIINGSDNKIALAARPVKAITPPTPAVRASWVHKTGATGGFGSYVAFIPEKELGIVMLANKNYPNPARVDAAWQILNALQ

| SMILES | Potency | activity change, negative = inhibition |
| --- | --- | --- |
| CCOc1ccc(C(=O)N2CCN(C(=O)c3ccco3)CC2)cc1OCC | inconclusive [inhibitor, full curve] |  |
| O=C(NC1CCCC1)c1cc2ccccc2o1 |  | inactive: -0.195% |
| C#CCOc1c(/C=C\c2nc(O)c([N+](=O)[O-])c(=O)[nH]2)cc(Br)cc1OC |  | inactive: -11.5% |
| COc1cccc(C(=O)C2CCCN(C/C=C/c3ccccc3OC)C2)c1 (stereo unspecified) |  | inactive: 6.2% |
| Cc1nc(-c2ccccc2)sc1-c1n[nH]c(=S)n1C |  | inactive: -2.55% |
| CCN1CCN(Cc2nc3ccc([N+](=O)[O-])cc3c(=O)n2-c2ccccc2F)CC1 |  | inactive: -5% |
| COc1ccccc1CN1C2CCCC1CC(NC(=O)/C=C/c1ccccc1)C2 (stereo unspecified) |  | inactive: -7.48% |
| CCSc1oc(-c2cccs2)nc1S(=O)(=O)c1ccccc1 | inconclusive [inhibitor, full curve, poor fit] |  |
| Cc1ccc(CN2C(=O)CCC2C(=O)NCCCN2CCC(C)CC2)cc1 (stereo unspecified) | inconclusive [inhibitor, single point] |  |
| CCOC(=O)N1CCN(C(=O)c2cc3cc(Br)ccc3oc2=O)CC1 | inconclusive [inhibitor, full curve, poor fit] |  |
| CC(CCc1ccccc1)NC(=O)c1nnc(Cc2ccc(Cl)cc2)o1 (stereo unspecified) | inconclusive [inhibitor, full curve, poor fit] |  |
| Cc1cccc(-c2nnc(SCC(=O)O)n2Cc2ccccc2)c1 | inconclusive [inhibitor, partial curve, poor fit] |  |
| CC(=O)Nc1ccc(CN2CCN(C3CCCCC3)C(CCO)C2)cc1 (stereo unspecified) | inconclusive [inhibitor, single point] |  |
| Cc1ccc[n+](Cc2ccc([N+](=O)[O-])cc2)c1 |  | inactive: -0.649% |
| COc1ccc(NC(=O)C(=O)NCCN2CCN(C(=O)c3ccco3)CC2)cc1 |  | inactive: -0.116% |
| Cc1cccc(OCCn2c(S(=O)(=O)O)nc3ccccc32)c1 | inconclusive [inhibitor, full curve, poor fit] |  |
| O=C(Nc1ccccc1N1CCN(C(=O)c2ccccc2)CC1)c1ccc(Cl)cc1 | inconclusive [inhibitor, single point] |  |
| CC1CCN(C(=O)CSc2nc3c(c(=O)n2C)SCC3)CC1 |  | inactive: 2.51% |
| COc1ccc(-n2c(SCC(=O)NCC3CCCO3)nc3ccccc32)cc1 (stereo unspecified) | inconclusive [inhibitor, single point] |  |
| COc1cc(NC(=O)C2CC2)c(OC)cc1NC(=O)c1ccco1 |  | inactive: -3.36% |
| COc1ccc2oc(C(=O)OCC(=O)Nc3ccc(NC(C)=O)cc3)c(C)c2c1 | inconclusive [inhibitor, single point] |  |
| CN1CCN(c2ncc3c(n2)CCN(Cc2ccccc2Cl)C3)CC1 |  | inactive: -4.15% |
| CC(C)(C)C(=O)COC(=O)c1cc(S(=O)(=O)N2CCCCC2)ccc1N1CCOCC1 | inconclusive [inhibitor, single point] |  |
| Cc1ccc(-n2ncc3c(NCCc4ccccc4)ncnc32)cc1 |  | inactive: -1.71% |

| SMILES | Potency | activity change, negative = inhibition |
| --- | --- | --- |
| CCN(c1ccccc1)S(=O)(=O)c1cc(C(=O)Nc2ccc(Br)cc2)ccc1F | inconclusive [inhibitor, full curve, poor fit] |  |
| N/C(=N\OC(=O)c1cccc(F)c1)c1ccccn1 |  | inactive: -2.47% |
| CCOc1ccccc1N(CC(=O)NC1CCCC1)C(=O)CCC(=O)Nc1cc(C)on1 | inconclusive [inhibitor, full curve, poor fit] |  |
| CC(C)COc1ncnc2c1sc1nc3c(cc12)COC(C)(C)C3 |  | inactive: 1.44% |
| CC(OC(=O)/C=C/c1ccccc1Cl)C(=O)NC1CCCCC1C (stereo unspecified) | inconclusive [inhibitor, full curve] |  |
| CN1c2ccccc2-c2nc3ccccc3n2C1c1ccco1 (stereo unspecified) | inconclusive [inhibitor, single point] |  |
| O=C1CN=C(c2ccc[nH]2)c2cc(Cl)ccc2N1 |  | inactive: -5.43% |
| Cc1ccccc1OCC(=O)NC(=S)Nc1ccc(S(=O)(=O)NC2CCCCC2)cc1 | inconclusive [inhibitor, full curve] |  |
| COCCC(=O)N1CCCC(CCC(=O)NCc2ccc(F)c(F)c2)C1 (stereo unspecified) |  | inactive: 1.34% |
| COc1cc(NC(=O)CCCSc2nc(-c3ccco3)cc(C(F)(F)F)n2)cc(OC)c1OC | inconclusive [inhibitor, single point] |  |
| Cn1c(=O)n(Cc2ccccc2)c2ccccc21 | inconclusive [inhibitor, full curve, poor fit] |  |
| Cc1ccc(-n2nnnc2SCC(=O)Nc2sccc2C#N)cc1 | inconclusive [inhibitor, partial curve, poor fit] |  |
| Cc1ccc(OCCCC(=O)Nc2ccc(S(N)(=O)=O)cc2)cc1 |  | inactive: -4.44% |
| COc1ccc(NS(=O)(=O)c2ccc(O)c(NC(=O)c3cc4c(C)nn(-c5ccc(F)cc5)c4s3)c2)cc1 | inconclusive [inhibitor, partial curve] |  |
| Cc1cc(C(=O)CSc2nnnn2-c2ccccc2)c(C)n1CC1CCCO1 (stereo unspecified) |  | inactive: -5.52% |
| COCC1CCN(C(=O)C2CCC(=O)N(C3CCCC3)C2)CC1 (stereo unspecified) | inconclusive [inhibitor, partial curve, poor fit] |  |
| CC1(C)O[C@@H]2C[C@H]3[C@@H]4C[C@H](F)C5=CC(=O)CC[C@]5(C)[C@H]4[C@@H](O)C[C@]3(C)[C@]2(C(=O)CO)O1 | inconclusive [inhibitor, single point] |  |
| Cn1nnc(NC(=O)c2ccccc2)n1 | inconclusive [inhibitor, single point] |  |
| O=C(O)c1ccccc1-c1ccccc1C(=O)Nc1nccs1 | inconclusive [inhibitor, single point] |  |
| COc1ccc(C(CC(=O)N2CCCC(C)C2)c2c(O)cc(OC)cc2OC)cc1 (stereo unspecified) |  | inactive: 1.24% |
| COc1ccc(-c2cc(-c3ccc(OC)cc3)[nH]n2)cc1 |  | inactive: -1.33% |
| COc1cc(C2c3c(-c4cc(C)cc(C)c4O)n[nH]c3C(=O)N2CCCO)cc(OC)c1OC (stereo unspecified) | inconclusive [inhibitor, partial curve] |  |
| CC(C)(C)NC(=O)NC(=O)COC(=O)Cn1cnc2ccccc2c1=O | inconclusive [inhibitor, full curve, poor fit] |  |
| CCCOc1ccc(C(=O)OCC(=O)NCCc2ccc(OCC)c(OCC)c2)cc1OC |  | inactive: -8.87% |

| SMILES | Potency | activity change, negative = inhibition |
| --- | --- | --- |
| CC(=O)Oc1cccc(N2C(=O)c3ccc(C(=O)O)cc3C2=O)c1 |  | inactive: -1.49% |
| CC(C)CNc1nc(Oc2ccc(=O)n(-c3ccccc3)n2)nc(N2CCOCC2)n1 | inconclusive [inhibitor, partial curve] |  |
| COc1ccc(CNC(=O)[C@H](Cc2c[nH]c3ccccc23)NC(=O)[C@@H]2Cc3ccccc3CN2)cc1 | inconclusive [inhibitor, partial curve, poor fit] |  |
| O/N=C/c1c[nH]c2ccccc12 |  | inactive: -12.6% |
| CCOC(=O)c1[nH]c2ccc(OC)cc2c1NS(=O)(=O)c1ccc(Cl)s1 | inconclusive [inhibitor, partial curve, poor fit] |  |
| O=C(CSc1nnc2ccccn12)c1ccc2c(c1)OCCO2 | inconclusive [inhibitor, full curve] |  |
| S=C(NCc1ccco1)N1CCN(c2nc(-c3ccc(Cl)cc3)cs2)CC1 |  | inactive: 0.635% |
| CC(C)NC(=O)c1ccccc1NC(=O)C1COc2ccccc2O1 (stereo unspecified) |  | inactive: -0.756% |
| CCc1ccccc1N1CSC2=C(C#N)C(c3ccccc3F)CC(=O)N2C1 (stereo unspecified) |  | inactive: 4.13% |
| CCN1C(=O)[C@H]2[C@@H](c3ccc(C)cc3)N3C(=O)N(c4cccc(Cl)c4)C(=O)[C@@]3(C)[C@H]2C1=O | inconclusive [inhibitor, full curve, poor fit] |  |
| CSCCCNC(=S)Nc1cccc(S(=O)(=O)NC2=NCCC2)c1 |  | inactive: -14.1% |
| CC(C)(C)C(=O)OC1=CN(Cc2ccccc2)S(=O)(=O)c2ccccc21 |  | inactive: 22.1% |
| CCOC(=O)N1CCC(NC(=O)c2ccc3c(Cl)c4c(nc3c2)CCCC4)CC1 | inconclusive [inhibitor, full curve, poor fit] |  |
| O=C(O)Cc1coc(-c2ccc(F)cc2)n1 | inconclusive [inhibitor, full curve, poor fit] |  |
| Cc1ccc(C)c(CNC(=O)c2cnc3sc(N4CCCC4)nn3c2=O)c1 |  | inactive: 16.7% |
| CC(=O)C1=C(C)NC(=O)NC1c1cc(Br)ccc1OCC#N (stereo unspecified) | inconclusive [inhibitor, full curve, poor fit] |  |
| CC(C)Cn1c(O)c2ccc(C(=O)N=NC(=O)c3cccnc3)cc2c1O | inconclusive [inhibitor, partial curve, poor fit] |  |
| Cc1ccc(C(=O)N(CC(=O)NC2CCCCC2)c2ccccc2C)s1 |  | inactive: -0.838% |
| O=S1(=O)CCO[C@H]2Cc3ccccc3[C@H]2N1Cc1cccc(F)c1 | inconclusive [inhibitor, partial curve] |  |
| COCCCNC(=O)c1cccc(S(=O)(=O)N2CC3(C)CC2CC(C)(C)C3)c1 (stereo unspecified) | inconclusive [inhibitor, single point] |  |
| CCCCN(C)C(=O)c1cc2cc3cc(OC)ccc3nc2o1 | inconclusive [inhibitor, full curve] |  |
| COc1cccc(N2CC(C(=O)Oc3ccc4ccccc4c3)CC2=O)c1 (stereo unspecified) | inconclusive [inhibitor, partial curve] |  |
| Cc1ccc(CC(=O)O/N=C(\N)c2cccc([N+](=O)[O-])c2)cc1 | inconclusive [inhibitor, full curve, poor fit] |  |
